About 3,600 (1.6%) of roughly 230,000 compounds were called active. Inconclusive results, whose numbers are uncertain, are shown with a selection of clear calls. Calls come from the whole dose curve; as a rule, active = well fitted inhibition curve with a large enough effect (not every such curve was filed as active); inconclusive = small, poorly fitted or top-dose-only effect, or another doubt; inactive = no such curve, though single readings can be large or run the other way. Potencies beside an inconclusive call are fits to weak or partial responses and may not hold up.
These compounds were tested against Lysine-specific demethylase 4E (Homo sapiens) (UniProt B2RXH2) (assay: qHTS Assay for Inhibitors of Human Jumonji Domain Containing 2E (JMJD2E)). Conditions: JMJD2E catalytic domain, FDH-coupled NADH fluorescence (FDH is formaldehyde dehydrogenase); series mostly up to 57.1 µM.
Chain of UniProt B2RXH2 (B2RXH2 whole entry, looked up, the tested form may be a part): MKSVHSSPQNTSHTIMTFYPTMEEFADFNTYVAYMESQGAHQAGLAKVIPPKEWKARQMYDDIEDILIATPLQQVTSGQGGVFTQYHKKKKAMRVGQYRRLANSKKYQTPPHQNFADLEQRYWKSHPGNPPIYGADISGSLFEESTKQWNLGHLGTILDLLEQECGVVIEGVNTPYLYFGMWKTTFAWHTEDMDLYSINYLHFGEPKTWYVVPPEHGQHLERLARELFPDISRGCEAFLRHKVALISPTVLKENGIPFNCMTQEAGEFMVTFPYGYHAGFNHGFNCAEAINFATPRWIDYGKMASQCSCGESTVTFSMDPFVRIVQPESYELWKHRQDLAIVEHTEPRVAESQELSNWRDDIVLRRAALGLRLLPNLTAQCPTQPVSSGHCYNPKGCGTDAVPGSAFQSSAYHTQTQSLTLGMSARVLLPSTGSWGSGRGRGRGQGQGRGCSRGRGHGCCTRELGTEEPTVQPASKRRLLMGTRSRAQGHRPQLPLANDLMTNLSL
In the case of `Cc1cccc(N2CCN(c3ccc(NC(=O)/C=C(/C(=O)O)c4ccccc4)cc3)CC2)c1`, the Potency is reported as “inactive”.
With `CC(C)c1cc(NCC2CCCO2)n2c(nc3ccccc32)c1C#N` (stereo not drawn) the Potency was inconclusive: 25.1 µM [inhibitor, partial curve].
`CNC(=O)c1c(NC(=O)c2cccc(N3C(=O)CCC3=O)c2)sc2c1CCC2` was tested, and the Potency was inconclusive: 35.5 µM [inhibitor, single point].
`CC1CCC(NCC(=O)Nc2cccc(S(N)(=O)=O)c2)CC1` (stereo not drawn) was tested, and the Potency was inconclusive: 35.5 µM [inhibitor, single point].
For `COc1ccc(C2c3ccsc3CCN2C(=O)C(C)(C)C)cc1` (stereo not drawn), the Potency was “inactive”.
With `CCOC(=O)C(NC(=O)CCl)(Nc1sc(C)c(CC)c1C#N)C(F)(F)F` (stereo not drawn) the Potency was “inactive”.
For `COc1ccc(Nc2oc(-c3ccc(Cl)cc3)nc2C#N)cc1`, the Potency was inconclusive: 35.5 µM [inhibitor, single point].
In the case of `CC(C)(C)c1nc2c(C#N)c(-c3ccc(Cl)cc3)ccn2n1`, the Potency is reported as inconclusive: 28.2 µM [inhibitor, single point].
For `O=c1oc(-c2cccs2)nc2scc(-c3cccs3)c12`, the Potency was inconclusive: 39.8 µM [inhibitor, single point].
For `CCCC/C=C/C(NC(=O)c1ccco1)c1ccccc1` (stereo not drawn), the Potency was inconclusive: 39.8 µM [inhibitor, single point].
In the case of `COc1ccc(C(=O)NC(=S)Nc2ccc(CN3CCCCC3)cc2)cc1Cl`, the Potency is reported as “inactive”.
With `CCOC(=O)c1c(NC(=O)Cc2cccs2)sc2c1CCCC2` the Potency was “inactive”.
`CC1=CC(c2ccc(Cl)cc2)n2nc(NC(=O)c3ccccc3)nc2N1` (stereo not drawn) was tested, and the Potency was inconclusive: 35.5 µM [inhibitor, single point].
For `O=C1/C(=C/C=C/c2ccco2)SC(=S)N1NS(=O)(=O)c1ccccc1`, the Potency was active: 15.8 µM.
In the case of `Cc1nc(NCc2ccccc2)c2nc(-c3ccccc3)n(CCN3CCOCC3)c2n1`, the Potency is reported as inconclusive: 31.6 µM [inhibitor, partial curve].
In the case of `CCOCCCNC(=O)c1c(N)n(-c2ccc3c(c2)OCO3)c2nc3ccccc3nc12`, the Potency is reported as inconclusive: 31.6 µM [inhibitor, partial curve].
In the case of `COc1ccc(S(=O)(=O)N2CCN(c3cc(-c4ccccc4)nc4ncnn34)CC2)cc1`, the Potency is reported as inconclusive: 35.5 µM [inhibitor, single point].
For `O=C(O)Cc1ccc(N=Nc2c(O)c(C(=O)O)cc3ccccc23)cc1`, the Potency was inconclusive: 39.8 µM [inhibitor, single point].
With `O=C(NCc1ccco1)c1ccc2c(c1)C(=O)c1ccccc1-2` the Potency was “inactive”.
With `CCOC(=O)C1CCCN(C(=S)Nc2ccc(OC)cc2)C1` (stereo not drawn) the Potency was “inactive”.
`COc1ccc(CN(Cc2cc3cc4c(cc3[nH]c2=O)OCO4)C(=O)NC2CCCCC2)cc1` was tested, and the Potency was inconclusive: 28.2 µM [inhibitor, partial curve].
In the case of `COc1cccc(C2C(C#N)=C(N)Oc3cc(C)n(Cc4ccccn4)c(=O)c32)c1OC` (stereo not drawn), the Potency is reported as “inactive”.
`COc1cc(OC)cc(-c2cc3nc(C)c(CCC(=O)Nc4nc(C)cs4)c(C)n3n2)c1` was tested, and the Potency was inconclusive: 31.6 µM [inhibitor, partial curve].
In the case of `Cc1ccccc1NC(=O)c1ccc(CN(c2ccccc2)S(=O)(=O)c2ccccc2)cc1`, the Potency is reported as “inactive”.
In the case of `COC(=O)Cc1[nH]n(-c2ccccc2)c(=O)c1C(C)=Nc1ccccc1`, the Potency is reported as inconclusive: 39.8 µM [inhibitor, single point].
For `Cc1ccc(/C=N/n2c(-c3cccnc3)n[nH]c2=S)o1`, the Potency was inconclusive: 39.8 µM [inhibitor, single point].
With `CCNc1nc(NC(C)C)nc(ON=C(C)C)n1` the Potency was “inactive”.
With `COc1ccc(-c2csc(Nc3ccc(C)cn3)n2)cc1` the Potency was “inactive”.
In the case of `O=C(NC1CCCCCC1)c1cc2n(n1)C(C(F)(F)F)CC(c1ccco1)N2` (stereo not drawn), the Potency is reported as “inactive”.
`CC1(C)c2ccccc2-n2c1cc1oc(=O)cc(O)c1c2=O` was tested, and the Potency was inconclusive: 35.5 µM [inhibitor, single point].
In the case of `O=C(c1cccn2c(=O)c3cc(Br)ccc3nc12)N1CCN(c2ccccn2)CC1`, the Potency is reported as inconclusive: 22.4 µM [inhibitor, partial curve].
For `COc1ccc(NS(=O)(=O)c2ccc(OC)c3ccccc23)cn1`, the Potency was “inactive”.
With `Cc1cc2cc(CNC(=O)c3cccs3)ccc2n1C` the Potency was “inactive”.
In the case of `Cc1ccc2c(c1)cc(CN(Cc1ccco1)C(=O)COc1ccccc1)c1nnnn12`, the Potency is reported as inconclusive: 35.5 µM [inhibitor, single point].
For `O=C(O)COCC(=O)Nc1ccc(-n2cnnn2)cc1`, the Potency was “inactive”.
For `CCN1CCN(c2cc(N3CCc4ccccc4C3)c(F)cc2[N+](=O)[O-])CC1`, the Potency was “inactive”.
With `CCOC(=O)N1CCC(NC(=O)C(C)n2c3ccccc3c3cnn(C)c(=O)c32)CC1` (stereo not drawn) the Potency was inconclusive: 35.5 µM [inhibitor, single point].
`COc1cccc(C(CC(=O)Nc2cccc3ccccc23)NC(=O)c2ccccc2)c1` (stereo not drawn) was tested, and the Potency was “inactive”.
In the case of `CC(C)CC(NC(=O)C(NC(=O)C1OC2OC(C)(C)OC2C2OC(C)(C)OC12)C(C)C)C(=O)O` (stereo not drawn), the Potency is reported as “inactive”.
In the case of `CCOC(=O)c1nnn2c3ccccc3c(=O)n(C)c12`, the Potency is reported as inconclusive: 25.1 µM [inhibitor, partial curve].
With `c1ccc(-c2n[nH]c3ccccc23)cc1` the Potency was inconclusive: 39.8 µM [inhibitor, single point].
In the case of `CCOc1ccc(-c2nc(-c3ccc(OC)cc3)no2)cc1OCC`, the Potency is reported as inconclusive: 31.6 µM [inhibitor, partial curve].
`O=C(NCc1ccco1)c1cnc2ccccn2c1=O` was tested, and the Potency was inconclusive: 31.6 µM [inhibitor, single point].
For `COc1ccc(-c2cc(C(=O)Nc3nc4ccccc4s3)c3ccccc3n2)cc1OC`, the Potency was inconclusive: 31.6 µM [inhibitor, partial curve].
With `COC(=O)c1ccc(NC(=O)CCS(=O)(=O)c2ccc(Br)cc2)cc1` the Potency was “inactive”.
`COc1ccc2c(c1)CCc1cc(C(=O)O)sc1-2` was tested, and the Potency was inconclusive: 25.1 µM [inhibitor, partial curve].
For `CCOc1ccc(/C(O)=C2\C(=O)C(=O)N(CCN(C)C)C2c2cccc(OC)c2OC)cc1Cl` (stereo not drawn), the Potency was inconclusive: 7.94 µM [inhibitor, partial curve].
In the case of `COc1ccc(-n2nc(C)cc2Nc2ccccc2C(=O)O)cc1`, the Potency is reported as “inactive”.
In the case of `COc1ccc(N2C(=O)C(Cl)=C(Nc3c(C)n(C)n(-c4ccccc4)c3=O)C2=O)cc1`, the Potency is reported as “inactive”.
In the case of `CS(=O)(=O)c1ccc(Sc2nc3ccccc3[nH]2)c([N+](=O)[O-])c1`, the Potency is reported as “inactive”.
For `Cc1ccccc1S(=O)(=O)c1c(C)cc(C)n(CC(C)C)c1=O`, the Potency was “inactive”.
In the case of `COc1ccc(NCC(O)Cn2cnc3c2c(=O)n(C)c(=O)n3C)cc1` (stereo not drawn), the Potency is reported as inconclusive: 28.2 µM [inhibitor, single point].
In the case of `O=c1[nH]c(S)nc2sc3c(c12)CCCC3`, the Potency is reported as inconclusive: 35.5 µM [inhibitor, partial curve].
In the case of `COc1cc2cnc(Cl)nc2cc1OC`, the Potency is reported as inconclusive: 28.2 µM [inhibitor, single point].
In the case of `COCc1cc(=O)n2c([nH]c3ccccc32)c1C#N`, the Potency is reported as inconclusive: 12.6 µM [inhibitor, partial curve].
In the case of `CC(C(=O)NC1CCCC1)N(C(=O)c1snc(C(N)=O)c1N)c1ccc2c(c1)OCCO2` (stereo not drawn), the Potency is reported as “inactive”.
In the case of `Cc1cccc2nc(-c3ccco3)c(Nc3ccc4c(c3)OCO4)n12`, the Potency is reported as inconclusive: 25.1 µM [inhibitor, partial curve].
With `CCCN(CCC)CCOc1cc(C)ccc1C(C)C` the Potency was “inactive”.
`CCOC(=O)N1CCN(S(=O)(=O)c2ccc(C(=O)NNc3nc4c(C)cc(C)cc4s3)cc2)CC1` was tested, and the Potency was “inactive”.
With `CCc1ccc(CN(C)CCc2ccccn2)cc1` the Potency was inconclusive: 39.8 µM [inhibitor, single point].
`Cc1cc(C)c2nc(SC(C)C(=O)NCC(=O)Nc3ccc(F)c(F)c3F)cc(C)c2c1` (stereo not drawn) was tested, and the Potency was “inactive”.
In the case of `Cc1cc(N2CCN(c3ccccc3)CC2)n2cc(-c3ccccc3)nc2n1`, the Potency is reported as inconclusive: 28.2 µM [inhibitor, partial curve].
For `Cc1ccccc1CN1CCN(S(=O)(=O)c2ccc(F)cc2)CC1`, the Potency was inconclusive: 35.5 µM [inhibitor, single point].
With `O=C(Nc1nc(-c2ccccc2)cs1)c1ccccc1NS(=O)(=O)c1ccc(F)cc1` the Potency was inconclusive: 14.1 µM [inhibitor, partial curve].
For `O=C(NNc1nc2ccc(Cl)cc2s1)c1cc(-c2cccs2)nc2ccccc12`, the Potency was inconclusive: 31.6 µM [inhibitor, partial curve].
`NCCCC[C@H](NC(=O)C1CCNCC1)c1nnc(CN)o1` was tested, and the Potency was “inactive”.
With `O=C(/C=C/c1ccccc1Cl)Nc1ccc2c(c1)C(=O)NC2=O` the Potency was inconclusive: 31.6 µM [inhibitor, partial curve].
For `CS(=O)(=O)OCCCCOS(C)(=O)=O`, the Potency was inconclusive: 25.1 µM [inhibitor, single point].
`C/C(=N\Nc1ccc(C(=O)O)cc1)c1ccc2c(c1)Nc1ccccc1S2` was tested, and the Potency was inconclusive: 25.1 µM [inhibitor, partial curve].
In the case of `CCCCN(CCCC)S(=O)(=O)c1ccc(C(=O)Nc2nnc(COC)o2)cc1`, the Potency is reported as inconclusive: 39.8 µM [inhibitor, single point].
With `O=C1CCCC(O)=C1N=Nc1cccc(C(=O)O)c1` the Potency was inconclusive: 35.5 µM [inhibitor, single point].
In the case of `CCOC(=O)NN1C(=O)c2ccccc2NC12CCCC2`, the Potency is reported as inconclusive: 31.6 µM [inhibitor, partial curve].
With `Cc1oc2c(CN(C)C)c(O)ccc2c(=O)c1-c1cscn1` the Potency was inconclusive: 31.6 µM [inhibitor, partial curve].
Note: nearly all actives have a fitted effect of over 50% in size.
Potency is the fitted concentration of half-maximal effect; tags give direction and shape of the fitted curve.
